From article PMC4336329 (PLoS ONE, 2015)
Out of some 310,000 compounds screened, about 2,200 (0.71%) showed an effect of 50% or more. The effect is printed as a negative number. Some of the results follow.

Biological target: human ether-à-go-go-related gene (hERG) potassium channel (human, UniProt Q12809)
Test: primary screen, population patch clamp on CHO cells stably expressing hERG

Sequence of human ether-à-go-go-related gene (hERG) potassium channel (Q12809 whole entry, looked up): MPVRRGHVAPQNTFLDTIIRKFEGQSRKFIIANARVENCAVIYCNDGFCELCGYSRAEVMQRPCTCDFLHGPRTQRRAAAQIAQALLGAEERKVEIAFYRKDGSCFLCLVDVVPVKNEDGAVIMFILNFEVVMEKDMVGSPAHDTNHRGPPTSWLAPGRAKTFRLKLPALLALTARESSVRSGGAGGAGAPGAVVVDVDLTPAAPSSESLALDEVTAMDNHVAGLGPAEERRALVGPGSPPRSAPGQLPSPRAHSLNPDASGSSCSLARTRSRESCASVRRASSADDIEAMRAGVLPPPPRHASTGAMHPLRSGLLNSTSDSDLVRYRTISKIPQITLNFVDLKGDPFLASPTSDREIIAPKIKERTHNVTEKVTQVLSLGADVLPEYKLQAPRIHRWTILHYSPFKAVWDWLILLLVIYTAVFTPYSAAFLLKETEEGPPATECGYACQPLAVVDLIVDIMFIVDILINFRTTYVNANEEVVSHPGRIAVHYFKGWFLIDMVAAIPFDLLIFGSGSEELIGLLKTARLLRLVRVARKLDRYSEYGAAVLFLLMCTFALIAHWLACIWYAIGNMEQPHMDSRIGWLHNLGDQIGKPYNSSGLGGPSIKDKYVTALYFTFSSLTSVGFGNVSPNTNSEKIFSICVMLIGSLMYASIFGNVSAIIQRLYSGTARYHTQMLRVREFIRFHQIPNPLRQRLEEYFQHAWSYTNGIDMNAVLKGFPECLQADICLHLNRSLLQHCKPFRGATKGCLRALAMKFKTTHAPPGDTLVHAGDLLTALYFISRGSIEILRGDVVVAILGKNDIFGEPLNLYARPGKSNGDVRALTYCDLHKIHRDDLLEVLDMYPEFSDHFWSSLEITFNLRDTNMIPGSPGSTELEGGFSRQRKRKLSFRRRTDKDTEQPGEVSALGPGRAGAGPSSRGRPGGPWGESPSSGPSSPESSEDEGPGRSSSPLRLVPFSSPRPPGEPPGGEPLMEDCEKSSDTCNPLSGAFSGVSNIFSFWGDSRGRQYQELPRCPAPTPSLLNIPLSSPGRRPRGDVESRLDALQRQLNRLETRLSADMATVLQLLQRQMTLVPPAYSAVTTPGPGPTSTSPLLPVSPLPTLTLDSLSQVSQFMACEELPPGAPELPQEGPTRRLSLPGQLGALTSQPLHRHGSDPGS

Point of comparison: `COc1ccc(Oc2nc(OC)cc(OC)n2)cc1`, “hERG current change (%, negative = inhibition) at 1uM” value 9.71%. Against it:
- Cc1onc(-c2c(Cl)cccc2Cl)c1C(=O)NCc1cccs1 — lower, 5.69%
- O=C(COC(=O)C1=COCCO1)Nc1cccc(Oc2ccccc2)c1 — lower, 5.05%
- CC(C)N1CCN(C(=O)c2cccc(Cl)c2)CC1.O=C(O)C(=O)O — higher, 14.6%
- Cc1ccccc1N(C(=O)CNC(=O)c1cccs1)C(C(=O)NC1CCCC1)c1ccncc1 (stereo not drawn) — lower, 2.9%
- COC(=O)c1ccc(COC(=O)CNC(=O)CNC(=O)c2ccc(OC)cc2)cc1 — lower, 3.78%
- O=C(CCc1nc2ccccc2c(=O)[nH]1)NC1CCN(Cc2ccccc2)CC1 — lower, 9.07%
- COc1ccc(OC)c(N(CC(=O)Nc2ccc(NC(C)=O)cc2)S(C)(=O)=O)c1 — higher, 11.6%
- CCc1cc(OCCN2C(=O)NC(C)(C)C2=O)ccc1Cl — higher, 15.6%
- CCOC(=O)c1[nH]c2ccccc2c1NC(=O)c1ccc(Br)o1 — lower, -1.99%
- CSc1ccccc1NC(=O)CN(C)CC(=O)Nc1ccccc1F.O=C(O)C(=O)O — lower, 3.46%
- O=[N+]([O-])c1ccc(S(=O)(=O)N2CCN=C2SCc2cccnc2)cc1 — lower, -13.7%
- Cc1ccc(N/C=C/C(=O)c2sc(-c3ccccc3)nc2C)cc1 — higher, 10.8%
- COc1ccccc1C(=O)Nc1ccc(C(=O)c2ccccc2)cc1 — higher, 15%
- CCN1C(C)=C(C)S/C1=C1\SC(=S)N(NC(C)=O)C1=O — lower, -0.944%
- CCOc1ccc(S(=O)(=O)N2CCC(C(=O)Nc3cccc(NC(C)=O)c3)CC2)cc1 — higher, 15.7%
- CCN(c1ccc(OC)cc1)S(=O)(=O)c1ccc(-c2cc(C)no2)s1 — higher, 15.9%
- O=C(Nc1ccc(Cl)cn1)c1ccc(Oc2ccccc2)cc1 — lower, 8.4%
- O=c1c2ccccc2c(=O)n2n1Cc1ccccc1C2 — higher, 12%
- COc1ccc2c(c1)NC1(O)c3ccccc3C(=O)C21O (stereo not drawn) — lower, -17.7%
- Cc1nc(Nc2ccccc2)sc1-c1ccccc1 — lower, 6.8%
- CCCCn1c(N)c(N(CCOC)C(=O)CSc2nnc(C)n2-c2ccc(OC)cc2)c(=O)[nH]c1=O — higher, 13.5%
- O=C(CCNC(=O)C1CCN(S(=O)(=O)c2ccccc2)CC1)NC1CC1 — higher, 14.4%
- Cc1ccc(CNC(=O)Cn2ncn3cccc3c2=O)cc1 — higher, 13%
- Cc1ccc2nc(CSc3nnc4ccccn34)cc(=O)n2c1 — higher, 13.6%
- O=C(Nc1ccccc1Cl)c1sccc1-c1ccccc1 — higher, 22.3%
- COc1ccc(S(=O)(=O)N2CCN(C(=O)CNC(=O)c3ccc4c(c3)OCO4)CC2)cc1 — higher, 29.2%
- COc1ccc(CN2CC(=O)N(c3cc(Cl)ccc3C)C2=S)cc1OC — higher, 10%
- O=C(C1CCN(S(=O)(=O)c2cnc[nH]2)CC1)N1CCN(c2ncccn2)CC1 — lower, -0.961%
- CC(C)c1onc(C(=O)Nc2cccc(O)c2)c1[N+](=O)[O-] — higher, 13.2%
- Cc1ccc(C(OCC(O)CN2CCCCC2CO)c2ccccc2)cc1 (stereo not drawn) — lower, -39.7%
- O=C(NC1CCCC1)C(c1cccs1)N(Cc1ccco1)C(=O)c1csnn1 (stereo not drawn) — higher, 10.6%
- CCN1CCSc2ccc(C(=O)NCc3ccccc3Br)cc21 — higher, 11.8%
- CN(C)S(=O)(=O)c1ccc(Oc2ccccc2)cc1 — lower, -15.7%
- CC1(CCc2ccc(O)cc2)NC(=O)NC1=O (stereo not drawn) — higher, 14.8%
- NC(=O)N/N=C/c1ccc2cccc(OCc3ccccc3)c2n1 — lower, 2.38%
- NC(=O)c1ccsc1NC(=O)c1ccc(S(=O)(=O)N2CCCc3ccccc32)cc1 — higher, 11.4%
- CCN(CC)Cc1ccc(NC(=O)c2sc3cc(Cl)ccc3c2Cl)cc1 — lower, 6.7%
- CCC(CO)Nc1ncnc2onc(-c3ccc(F)cc3)c12 (stereo not drawn) — lower, 5.81%
- CC1CC(Nc2ccccc2)=CC(=O)O1 (stereo not drawn) — higher, 20.1%
- CC(=O)C1=C(C)NC(SCC(=O)c2ccc(-c3ccccc3)cc2)=C(C#N)C1c1cccnc1 (stereo not drawn) — higher, 12.8%
- C=CCN1C=CC(=C/C=C(/C#N)C(=O)OCC)C=C1 — lower, 6.6%
- O=C(NCCc1c[nH]c2ccccc12)/C(=C/c1cccnc1)NC(=O)c1ccccc1 — lower, 7.48%
- O=C(NC1CCCC1)C(c1ccncc1)N(Cc1ccco1)C(=O)c1ccc(-c2ccccc2)[nH]1 (stereo not drawn) — higher, 21.8%
- Cc1nc2ccc(S(=O)(=O)N(C)CC(=O)NCCc3ccccc3)cc2s1 — lower, 8.02%
- CC1(C)Oc2ccc(C(=O)N3CCOCC3)cc2N(CC(=O)Nc2ccccc2)C1=O — lower, 8.3%
- COC(=O)c1cn(NC(=O)Cn2nc([N+](=O)[O-])c(Br)c2C)c(=O)c2ccccc12 — higher, 27.7%
- C=CCOc1ccc(CNC(C)(C)C)cc1OC.Cl — lower, 2.68%
- S=C(NCCC(c1ccccc1)c1ccccc1)Nc1cccc(Cl)c1 — higher, 13.1%
- N#CC1(NC(=O)COc2ccccc2[N+](=O)[O-])CCCCC1 — higher, 10.3%
- NS(=O)(=O)c1cccnc1Nc1cccc(Cl)c1Cl — lower, 4.89%
- CC(C)c1nnc(NC(=O)CSc2ccccc2)s1 — higher, 15.6%
- Cc1ccccc1OC(=O)CCC(=O)OCCCC(F)(F)C(F)(F)F — higher, 21.1%
- Cc1ccc(S(=O)(=O)N2C(=O)CCC2C(=O)Nn2cnnc2)cc1 (stereo not drawn) — lower, 3.37%
- CCOc1ccc(C(=O)Nc2cccc3cccnc23)cc1 — higher, 13.8%
- O=C1CCC(=O)N1c1ccc(NCCc2ccccc2F)c([N+](=O)[O-])c1 — lower, 5.64%
- O=C(NCCN1CCCC1)c1ccc(Cn2c(=S)[nH]c3cc4c(cc3c2=O)OCO4)cc1 — lower, -7.26%
